According to PMC4336329 (PLoS ONE, 2015):
Out of some 310,000 compounds screened, about 2,200 (0.71%) showed an effect of 50% or more. The effect is printed as a negative number. This is one part of the list.

Each compound was assayed against human ether-à-go-go-related gene (hERG) potassium channel (human, UniProt Q12809) (assay: primary screen, population patch clamp on CHO cells stably expressing hERG).
Sequence of human ether-à-go-go-related gene (hERG) potassium channel (Q12809 whole entry, looked up): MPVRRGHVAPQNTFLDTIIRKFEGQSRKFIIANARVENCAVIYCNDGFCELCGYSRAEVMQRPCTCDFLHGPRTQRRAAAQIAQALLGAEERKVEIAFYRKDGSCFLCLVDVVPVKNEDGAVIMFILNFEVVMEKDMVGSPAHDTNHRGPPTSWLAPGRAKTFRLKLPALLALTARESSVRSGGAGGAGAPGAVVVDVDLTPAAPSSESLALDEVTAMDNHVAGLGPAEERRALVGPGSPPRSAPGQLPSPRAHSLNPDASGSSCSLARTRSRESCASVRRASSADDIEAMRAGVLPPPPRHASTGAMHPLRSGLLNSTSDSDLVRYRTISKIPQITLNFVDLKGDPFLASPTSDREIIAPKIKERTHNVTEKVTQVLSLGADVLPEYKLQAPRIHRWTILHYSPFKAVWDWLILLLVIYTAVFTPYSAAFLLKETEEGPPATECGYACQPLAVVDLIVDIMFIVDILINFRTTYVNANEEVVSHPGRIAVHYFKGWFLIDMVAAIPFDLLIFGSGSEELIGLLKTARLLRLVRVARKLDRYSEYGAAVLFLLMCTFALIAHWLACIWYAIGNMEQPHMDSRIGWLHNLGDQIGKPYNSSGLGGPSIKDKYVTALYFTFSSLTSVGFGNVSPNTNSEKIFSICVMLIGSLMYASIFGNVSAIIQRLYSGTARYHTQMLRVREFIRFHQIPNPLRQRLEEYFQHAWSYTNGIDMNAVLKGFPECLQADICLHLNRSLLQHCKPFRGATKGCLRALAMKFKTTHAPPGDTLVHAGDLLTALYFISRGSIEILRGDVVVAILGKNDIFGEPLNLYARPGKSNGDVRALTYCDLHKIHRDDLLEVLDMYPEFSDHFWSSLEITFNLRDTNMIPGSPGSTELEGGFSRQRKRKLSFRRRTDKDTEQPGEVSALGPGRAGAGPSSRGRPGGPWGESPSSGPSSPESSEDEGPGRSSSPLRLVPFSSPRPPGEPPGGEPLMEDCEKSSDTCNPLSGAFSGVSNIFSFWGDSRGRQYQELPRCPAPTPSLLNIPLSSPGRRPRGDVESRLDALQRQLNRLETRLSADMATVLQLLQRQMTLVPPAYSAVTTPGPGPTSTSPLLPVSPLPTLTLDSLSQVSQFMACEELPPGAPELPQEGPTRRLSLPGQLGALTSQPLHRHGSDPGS
With `Cc1cccn2cc(-c3ccc(F)cc3)nc12` the “hERG current change (%, negative = inhibition) at 1uM” value was -6.72%.
With `CC(C)c1ccc(NC(=O)c2cccnc2)cc1` the “hERG current change (%, negative = inhibition) at 1uM” value was 10.4%.
With `O=C1C=C(c2cccs2)CC(c2cccs2)C1n1cnc([N+](=O)[O-])c1` (stereo not shown) the “hERG current change (%, negative = inhibition) at 1uM” value was 10.3%.
`C/C(=N\NC(=O)CNc1ccccc1)c1ccccc1` was tested, and the “hERG current change (%, negative = inhibition) at 1uM” value was -4.44%.
In the case of `Cc1cc2nnc(SCC(=O)Nc3cccc(S(=O)(=O)N4CCOCC4)c3)n2c2ccccc12`, the “hERG current change (%, negative = inhibition) at 1uM” value is reported as 11.6%.
With `Nc1ccccc1-c1nnn(CC(=O)Nc2ccc3c(c2)OCCO3)n1` the “hERG current change (%, negative = inhibition) at 1uM” value was 14.9%.
`CC(=O)N/C(=C\c1ccccc1)C(=O)OC(C)C(=O)NCc1ccccc1` (stereo not shown) was tested, and the “hERG current change (%, negative = inhibition) at 1uM” value was 7.67%.
`Oc1ccc(-c2cnc3ccccc3n2)cc1` was tested, and the “hERG current change (%, negative = inhibition) at 1uM” value was 8.78%.
With `Cc1ccc(OCCOc2cccc(Br)c2)c([N+](=O)[O-])n1` the “hERG current change (%, negative = inhibition) at 1uM” value was 11.2%.
With `COc1ccc(OC)c(NC(=O)c2ccc(S(=O)(=O)N3CCOCC3)cc2)c1` the “hERG current change (%, negative = inhibition) at 1uM” value was 14.8%.
In the case of `COc1ccc2c(CC(=O)N[C@@H](Cc3ccccc3)C(=O)O)cc(=O)oc2c1C`, the “hERG current change (%, negative = inhibition) at 1uM” value is reported as 4.26%.
In the case of `CCOc1ccccc1C(c1c(O)nc(SC)[nH]c1=O)c1c(O)nc(SC)[nH]c1=O`, the “hERG current change (%, negative = inhibition) at 1uM” value is reported as 3.85%.
In the case of `COC(=O)c1cccc(NC(=O)CC2C(=O)NCCN2C(=O)Nc2cc(C)cc(C)c2)c1` (stereo not shown), the “hERG current change (%, negative = inhibition) at 1uM” value is reported as 11.5%.
In the case of `Cc1noc(C)c1S(=O)(=O)N1CCCC(C(=O)N2CCc3ccccc3C2)C1` (stereo not shown), the “hERG current change (%, negative = inhibition) at 1uM” value is reported as -5.05%.
With `Nc1nonc1-c1noc(-c2ccc(Br)o2)n1` the “hERG current change (%, negative = inhibition) at 1uM” value was 0.272%.
`Cc1ccccc1NC(=O)Cc1nc(COC(=O)c2cccnc2Cl)cs1` was tested, and the “hERG current change (%, negative = inhibition) at 1uM” value was 11.6%.
`Oc1cccc(/C=N/NC(=S)Nc2cccnc2)c1O` was tested, and the “hERG current change (%, negative = inhibition) at 1uM” value was 8.14%.
For `COC1CCCN(C(=O)c2ccc3oc(Cc4ccc(Cl)cc4)nc3c2)C1` (stereo not shown), the “hERG current change (%, negative = inhibition) at 1uM” value was 7.73%.
For `CCC(=O)N1CCN(c2ccccc2NC(=S)NC(=O)c2ccco2)CC1`, the “hERG current change (%, negative = inhibition) at 1uM” value was 6.26%.
For `N/C(=N\OC(=O)c1ccc(Cl)cc1)c1ccc(Cl)cc1`, the “hERG current change (%, negative = inhibition) at 1uM” value was 9.91%.
In the case of `O=C(NCC1CCCO1)c1cc2cc(F)ccc2[nH]1` (stereo not shown), the “hERG current change (%, negative = inhibition) at 1uM” value is reported as 14.1%.
`O=C(COC(=O)c1cnccn1)c1cccc([N+](=O)[O-])c1` was tested, and the “hERG current change (%, negative = inhibition) at 1uM” value was 13.8%.
`O=C1C(Cc2ccccc2)NC(=S)N1c1ccccc1` (stereo not shown) was tested, and the “hERG current change (%, negative = inhibition) at 1uM” value was 15%.
`CCCCOc1ccc(N2CC(C(=O)NCc3ccco3)CC2=O)cc1` (stereo not shown) was tested, and the “hERG current change (%, negative = inhibition) at 1uM” value was 6.47%.
In the case of `Cc1cccc(NC(=O)CSc2nnnn2-c2ccc3c(c2)OCCO3)n1`, the “hERG current change (%, negative = inhibition) at 1uM” value is reported as -17.7%.
`Cc1ccccc1OCCC(=O)Nc1ccc(N2CCOCC2)cc1N1CCOCC1` was tested, and the “hERG current change (%, negative = inhibition) at 1uM” value was 2.71%.
`COc1nc(C)ccc1-c1noc(-c2ccccn2)n1` was tested, and the “hERG current change (%, negative = inhibition) at 1uM” value was 8.18%.
`Cc1ccc(C2=NN(C(=O)c3ccccc3F)C(c3ccccc3F)C2)cc1` (stereo not shown) was tested, and the “hERG current change (%, negative = inhibition) at 1uM” value was 14.3%.
For `Cc1[nH]c2ccccc2c1C(=O)CSc1ccccc1`, the “hERG current change (%, negative = inhibition) at 1uM” value was -2.05%.
In the case of `CCCCN(C(=O)c1ccco1)C1CCS(=O)(=O)C1` (stereo not shown), the “hERG current change (%, negative = inhibition) at 1uM” value is reported as 2.3%.
In the case of `CCc1ccc(NC2=CC(=O)CC(C)(C)C2)cc1`, the “hERG current change (%, negative = inhibition) at 1uM” value is reported as 17%.
In the case of `COC(=O)c1cc(NC(=O)C(C)c2ccc(CC(C)C)cc2)ccc1O` (stereo not shown), the “hERG current change (%, negative = inhibition) at 1uM” value is reported as 7.88%.
With `O=C(NCc1ccco1)c1nc2ncccn2n1` the “hERG current change (%, negative = inhibition) at 1uM” value was 6.52%.
In the case of `Cc1ccc(NC(=O)CCNC(=O)c2ccco2)cc1Cl`, the “hERG current change (%, negative = inhibition) at 1uM” value is reported as 14.8%.
`CC(C)(C)NC(=O)CSc1nc2ccc(NC(=O)CSc3nnc(N)s3)cc2s1` was tested, and the “hERG current change (%, negative = inhibition) at 1uM” value was 10%.
`CN1CCCC(OC(=O)c2ccccc2F)C1.Cl` (stereo not shown) was tested, and the “hERG current change (%, negative = inhibition) at 1uM” value was 7.78%.
For `CC(C)Oc1ccc(S(=O)(=O)N2CCOCC2)cc1NC(=O)CN1C(=O)NC2(CCCC2)C1=O`, the “hERG current change (%, negative = inhibition) at 1uM” value was 2.5%.
With `CCOc1ccc(N2C(=O)c3cccnc3C2Nc2ccc(C)cc2)cc1` (stereo not shown) the “hERG current change (%, negative = inhibition) at 1uM” value was 10%.
For `COCc1nnc(NS(=O)(=O)c2c(C)cc(C)cc2C)s1`, the “hERG current change (%, negative = inhibition) at 1uM” value was 2.52%.
For `Cc1cc(C)c(NC(=O)Cn2c([N+](=O)[O-])cnc2C)c(C)c1`, the “hERG current change (%, negative = inhibition) at 1uM” value was 11.1%.
In the case of `CC(=O)Nc1ccc(S(=O)(=O)n2cnc3ccccc32)cc1`, the “hERG current change (%, negative = inhibition) at 1uM” value is reported as 8.45%.
For `O=C(C1=C[C@@H](c2ccc(C(F)(F)F)cc2)C[C@@H](OCCCCO)O1)N1CCN(Cc2ccc3c(c2)OCO3)CC1`, the “hERG current change (%, negative = inhibition) at 1uM” value was -10%.
For `CC(=O)Nc1ccc(S(=O)(=O)Nc2nnc(CC(C)(C)C)s2)cc1`, the “hERG current change (%, negative = inhibition) at 1uM” value was 16.2%.
`CC1=CC(C)(C)N2C(=O)C(=O)c3cc(OC(=O)c4ccco4)cc1c32` was tested, and the “hERG current change (%, negative = inhibition) at 1uM” value was 16.1%.
In the case of `Cc1ccc(-n2nnc(-c3nccn3C)n2)cc1`, the “hERG current change (%, negative = inhibition) at 1uM” value is reported as 6.56%.
In the case of `COc1ccc(C(c2ccc(OC)cc2)C(Cl)(Cl)Cl)cc1`, the “hERG current change (%, negative = inhibition) at 1uM” value is reported as 13.6%.
For `O=c1c2ccccc2nc(-c2ccco2)n1-c1ccncc1`, the “hERG current change (%, negative = inhibition) at 1uM” value was 2.71%.
With `Cc1cc(C)cc(NC(=O)CSCc2cc(=O)n3ccsc3n2)c1` the “hERG current change (%, negative = inhibition) at 1uM” value was 11.2%.
For `COc1cc(C(=O)OC(C)C(=O)NC2CCCCC2C)c([N+](=O)[O-])cc1OC` (stereo not shown), the “hERG current change (%, negative = inhibition) at 1uM” value was -3.59%.
In the case of `O=S(=O)(c1ccc(Cl)cc1)n1nnc2ccccc21`, the “hERG current change (%, negative = inhibition) at 1uM” value is reported as 4.78%.
`Nc1cc(S(=O)(=O)N2CCCCC2)ccc1N1CCCCC1` was tested, and the “hERG current change (%, negative = inhibition) at 1uM” value was 3.61%.
`O=C(NCC1CCCCC1)c1ccc([N+](=O)[O-])cc1` was tested, and the “hERG current change (%, negative = inhibition) at 1uM” value was 8.06%.
In the case of `CCCCc1cc(=O)oc2cc(OCC(=O)NCC3CCC(C(=O)O)CC3)ccc12` (stereo not shown), the “hERG current change (%, negative = inhibition) at 1uM” value is reported as 15.7%.
In the case of `COc1cccc2cc(C(=O)C3=C(O)C(=O)N(CCN4CCOCC4)C3c3ccc(C(C)(C)C)cc3)oc12` (stereo not shown), the “hERG current change (%, negative = inhibition) at 1uM” value is reported as 35%.
`O=C1CSC(c2cccnc2)N1CCc1ccccn1` (stereo not shown) was tested, and the “hERG current change (%, negative = inhibition) at 1uM” value was 17.6%.
In the case of `Cc1ccc(Nc2nc3ccccc3n3cnnc23)cc1C`, the “hERG current change (%, negative = inhibition) at 1uM” value is reported as 11.4%.
`O=C(NC1CCCCC1)C1CCC(CNS(=O)(=O)c2ccccc2)CC1` (stereo not shown) was tested, and the “hERG current change (%, negative = inhibition) at 1uM” value was 16.5%.
With `Cc1ccc(NC(=O)NC2CCCCC2)cc1S(=O)(=O)N1CCOCC1` the “hERG current change (%, negative = inhibition) at 1uM” value was 9.67%.
